# Results as given in the supplement of paper PMC8728848.
# The list shows a part of the results.
# Experiments:
# Test in all cases: glycan array binding signal (z-score within array); higher = stronger binding
# Conditions in all cases: glycan notation: IUPAC condensed, linker removed
# [1] = biological target: Neu5Ac(a2-3)[GalNAc(b1-4)]Gal(b1-3)Gal
# Method in brief: (§1)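 Negative Z-scores can be read as non-binding. The Z-score is calculated within each array and then averaged across arrays of one protein sequence at different concentrations or buffers and across linkers. Arrays, 3228 in all, were curated from the Consortium for Functional Glycomics database and kept only where the protein sequence was available.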
# [2] = biological target: Neu5Ac(a2-3)[GalNAc(b1-4)]Gal(b1-3)GalNAc(b1-4)[Neu5Ac(a2-3)]Gal(b1-4)Glc
# Method in brief: as §1
# [3] = biological target: Neu5Ac(a2-3)[GalNAc(b1-4)]Gal(b1-3)Glc
# Method in brief: as §1
# [4] = biological target: Neu5Ac(a2-3)[GalNAc(b1-4)]Gal(b1-4)Glc
# Method in brief: as §1
# [5] = biological target: Neu5Ac(a2-3)[GalNAc(b1-4)]Gal(b1-4)GlcNAc
# Method in brief: as §1
# [6] = biological target: Neu5Ac(a2-3)[GalNAc(b1-4)]Gal(b1-4)GlcNAc(b1-3)GalNAc
# Method in brief: as §1
# [7] = biological target: Neu5Ac(a2-3)[GalNAc(b1-6)]Gal(b1-4)Glc
# Method in brief: as §1
# [8] = biological target: Neu5Ac(a2-3)[Neu5Ac(a2-6)]GalNAc
# Method in brief: as §1
# Neu5Ac(a2-6)Gal = biological target: Neu5Ac(a2-6)Gal
# Method in brief: as §1
# [9] = biological target: Neu5Ac(a2-6)Gal(b1-3)GalNAc(b1-4)Gal(b1-4)Glc
# Method in brief: as §1
# [10] = biological target: Neu5Ac(a2-6)Gal(b1-3)GlcNAc(b1-3)[Fuc(a1-3)[Gal(b1-4)]GlcNAc(b1-6)]Gal(b1-4)Glc
# Method in brief: as §1
# [11] = biological target: Neu5Ac(a2-6)Gal(b1-3)GlcNAc(b1-3)[Gal(b1-4)GlcNAc(b1-6)]Gal(b1-4)Glc
# Method in brief: as §1
# [12] = biological target: Neu5Ac(a2-6)Gal(b1-3)[Neu5Ac(a2-6)]GalNAc(b1-4)Gal(b1-4)Glc
# Method in brief: as §1
# Neu5Ac(a2-6)Gal(b1-4)Glc = biological target: Neu5Ac(a2-6)Gal(b1-4)Glc
# Method in brief: as §1
# [13] = biological target: Neu5Ac(a2-6)Gal(b1-4)GlcNAc
# Method in brief: as §1
# [14] = biological target: Neu5Ac(a2-6)Gal(b1-4)GlcNAc(b1-2)Man
# Method in brief: as §1
# [15] = biological target: Neu5Ac(a2-6)Gal(b1-4)GlcNAc(b1-2)Man(a1-3)Man(b1-4)GlcNAc(b1-4)GlcNAc
# Method in brief: as §1
# [16] = biological target: Neu5Ac(a2-6)Gal(b1-4)GlcNAc(b1-2)Man(a1-3)[Gal(b1-4)GlcNAc(b1-2)Man(a1-6)]Man(b1-4)GlcNAc(b1-4)GlcNAc
# Method in brief: as §1
# [17] = biological target: Neu5Ac(a2-6)Gal(b1-4)GlcNAc(b1-2)Man(a1-3)[GlcNAc(b1-2)Man(a1-6)]Man(b1-4)GlcNAc(b1-4)GlcNAc
# Method in brief: as §1
# [18] = biological target: Neu5Ac(a2-6)Gal(b1-4)GlcNAc(b1-2)Man(a1-3)[GlcNAc(b1-2)Man(b1-4)GlcNAc(b1-2)Man(a1-6)]Man(b1-4)GlcNAc(b1-4)GlcNAc
# Method in brief: as §1
# [19] = biological target: Neu5Ac(a2-6)Gal(b1-4)GlcNAc(b1-2)Man(a1-3)[GlcNAc(b1-4)][Neu5Ac(a2-6)Gal(b1-4)GlcNAc(b1-2)Man(a1-6)]Man(b1-4)GlcNAc(b1-4)GlcNAc
# Method in brief: as §1
# [20] = biological target: Neu5Ac(a2-6)Gal(b1-4)GlcNAc(b1-2)Man(a1-3)[Man(a1-6)]Man(b1-4)GlcNAc(b1-4)GlcNAc
# Method in brief: as §1
# [21] = biological target: Neu5Ac(a2-6)Gal(b1-4)GlcNAc(b1-2)Man(a1-3)[Neu5Ac(a2-3)Gal(b1-4)GlcNAc(b1-2)Man(a1-6)]Man(b1-4)GlcNAc(b1-4)GlcNAc
# Method in brief: as §1
# [22] = biological target: Neu5Ac(a2-6)Gal(b1-4)GlcNAc(b1-2)Man(a1-3)[Neu5Ac(a2-6)Gal(b1-4)GlcNAc(b1-2)Man(a1-6)]Man(b1-4)GlcNAc(b1-4)GlcNAc
# Method in brief: as §1
# [23] = biological target: Neu5Ac(a2-6)Gal(b1-4)GlcNAc(b1-2)Man(a1-3)[Neu5Ac(a2-6)Gal(b1-4)GlcNAc(b1-2)Man(a1-6)]Man(b1-4)GlcNAc(b1-4)[Fuc(a1-6)]GlcNAc
# Method in brief: as §1
# [24] = biological target: Neu5Ac(a2-6)Gal(b1-4)GlcNAc(b1-2)Man(a1-3)[Neu5Gc(a2-6)Gal(b1-4)GlcNAc(b1-2)Man(a1-6)]Man(b1-4)GlcNAc(b1-4)GlcNAc
# Method in brief: as §1
# [25] = biological target: Neu5Ac(a2-6)Gal(b1-4)GlcNAc(b1-2)Man(a1-6)Man(b1-4)GlcNAc(b1-4)GlcNAc
# Method in brief: as §1
# [26] = biological target: Neu5Ac(a2-6)Gal(b1-4)GlcNAc(b1-2)Man(a1-6)[Gal(b1-4)GlcNAc(b1-2)Man(a1-3)]Man(b1-4)GlcNAc(b1-4)GlcNAc
# Method in brief: as §1
# [27] = biological target: Neu5Ac(a2-6)Gal(b1-4)GlcNAc(b1-2)Man(a1-6)[GlcNAc(b1-2)Man(a1-3)]Man(b1-4)GlcNAc(b1-4)GlcNAc
# Method in brief: as §1
# [28] = biological target: Neu5Ac(a2-6)Gal(b1-4)GlcNAc(b1-2)Man(a1-6)[Man(a1-3)]Man(b1-4)GlcNAc(b1-4)GlcNAc
# Method in brief: as §1
# [29] = biological target: Neu5Ac(a2-6)Gal(b1-4)GlcNAc(b1-2)[Neu5Ac(a2-3)Gal(b1-4)GlcNAc(b1-4)]Man(a1-3)[Neu5Ac(a2-3)Gal(b1-4)GlcNAc(b1-2)Man(a1-6)]Man(b1-4)GlcNAc(b1-4)GlcNAc
# Method in brief: as §1
binder,measurement,setting,value
"CLEC5A (Homo sapiens), Q9NY25 (protein) MNWHMIISGLIVVVLKVVGMTLFLLYFPQIFNKSNDGFTTTRSYGTVSQIFGSSSPSPNGFITTRSYGTVCPKDWEFYQARCFFLSTSESSWNESRDFCKGKGSTLAIVNTPEKLKFLQDITDAEKYFIGLIYHREEKRWRWINNSVFNGNVTNQNQNFNCATIGLTKTFDAASCDISYRRICEKNAK",glycan array binding signal (z-score),[1],-0.32
same,glycan array binding signal (z-score),[2],-0.32
same,glycan array binding signal (z-score),[3],-0.32
same,glycan array binding signal (z-score),[4],-0.312
same,glycan array binding signal (z-score),[5],-0.098
same,glycan array binding signal (z-score),[6],-0.136
same,glycan array binding signal (z-score),[7],-0.32
same,glycan array binding signal (z-score),[8],0.058
same,glycan array binding signal (z-score),Neu5Ac(a2-6)Gal,-0.218
same,glycan array binding signal (z-score),[9],-0.32
same,glycan array binding signal (z-score),[10],0.258
same,glycan array binding signal (z-score),[11],-0.234
same,glycan array binding signal (z-score),[12],-0.32
same,glycan array binding signal (z-score),Neu5Ac(a2-6)Gal(b1-4)Glc,-0.242
same,glycan array binding signal (z-score),[13],-0.226
same,glycan array binding signal (z-score),[14],-0.191
same,glycan array binding signal (z-score),[15],-0.22
same,glycan array binding signal (z-score),[16],0.57
same,glycan array binding signal (z-score),[17],-0.227
same,glycan array binding signal (z-score),[18],0.569
same,glycan array binding signal (z-score),[19],-0.171
same,glycan array binding signal (z-score),[20],-0.151
same,glycan array binding signal (z-score),[21],-0.161
same,glycan array binding signal (z-score),[22],0.777
same,glycan array binding signal (z-score),[23],0.113
same,glycan array binding signal (z-score),[24],-0.32
same,glycan array binding signal (z-score),[25],-0.395
same,glycan array binding signal (z-score),[26],0.092
same,glycan array binding signal (z-score),[27],-0.21
same,glycan array binding signal (z-score),[28],0.033
same,glycan array binding signal (z-score),[29],-0.32
